Measurements published in patent US11365205B2 (Aurigene Discovery Technologies Limited, priority 2018, dated 2022).

Biological target: PRMT5/MEP50 Complex (Homo sapiens (Human), UniProt O14744)
Assay: PRMT5 inhibition based on TR-FRET assay
Type: biochemical
Conditions: 32 nM PRMT5:MEP50, 50 nM Histone-H4 peptide, 1 μM SAM
Source text: PRMT5 Inhibition Based on TR-FRET Assay:
Protein arginine methyltransferase 5 (PRMT5) is a type II arginine methyltransferase that catalyze mono- and symmetric demethylation on arginine residues of histone or non-histone proteins in presence of S-adenosylmethionine (AdoMet or SAM) a cofactor responsible for donating the methyl group. PRMT5 is reported to be overexpressed in several human cancers. To identify compounds that inhibit the PRMT5 and decrease its activity, a TR-FRET based assay has been established. Time-resolved fluorescence resonance energy transfer (TR-FRET) HTS assays are homogeneous proximity assays where the interaction of two dye-labeled binding partners is detected by the energy transfer between a donor and an acceptor dye and the subsequent light emission by the acceptor dye. PRMT5 catalyzes Histone H4 peptide which is biotin tagged to the Lysine amino acid at carboxyl end, in presence of S-adenosyl-1-methionine (SAM) to methylate the peptide. The antibody specific to mono methylated H4 peptide (H4R3) with Ig conjugate binds to the methylated peptide, indirectly binding to the Europium lanthanide. […]
The compound dilutions were prepared as 7.5% DMSO stock solutions in assay buffer. […] The plates were then read on Victor-3 with Excitation at 340 nm and Emissions collected at 615 and 665 nm in TR-FRET protocol. […]

Chain of UniProt O14744 (O14744 whole entry): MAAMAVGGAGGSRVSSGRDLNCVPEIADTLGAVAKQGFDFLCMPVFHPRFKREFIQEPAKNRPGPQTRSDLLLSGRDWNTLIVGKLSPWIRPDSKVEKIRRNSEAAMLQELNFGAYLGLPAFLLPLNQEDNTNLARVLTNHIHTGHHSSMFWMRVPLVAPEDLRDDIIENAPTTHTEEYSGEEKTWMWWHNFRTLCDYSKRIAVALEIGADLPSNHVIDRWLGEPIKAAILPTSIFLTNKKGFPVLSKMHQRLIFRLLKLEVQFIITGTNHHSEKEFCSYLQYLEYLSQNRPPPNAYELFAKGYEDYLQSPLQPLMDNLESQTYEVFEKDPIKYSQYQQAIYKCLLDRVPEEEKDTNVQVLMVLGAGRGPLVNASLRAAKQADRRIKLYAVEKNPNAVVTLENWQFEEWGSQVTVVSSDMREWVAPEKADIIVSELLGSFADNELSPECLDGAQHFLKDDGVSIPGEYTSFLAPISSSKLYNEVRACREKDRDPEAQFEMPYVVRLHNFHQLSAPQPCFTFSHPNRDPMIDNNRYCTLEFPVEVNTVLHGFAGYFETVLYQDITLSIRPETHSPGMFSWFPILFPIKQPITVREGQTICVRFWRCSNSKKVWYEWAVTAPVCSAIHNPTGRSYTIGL
Chain of UniProt O14744 (Q9BQA1 whole entry partner): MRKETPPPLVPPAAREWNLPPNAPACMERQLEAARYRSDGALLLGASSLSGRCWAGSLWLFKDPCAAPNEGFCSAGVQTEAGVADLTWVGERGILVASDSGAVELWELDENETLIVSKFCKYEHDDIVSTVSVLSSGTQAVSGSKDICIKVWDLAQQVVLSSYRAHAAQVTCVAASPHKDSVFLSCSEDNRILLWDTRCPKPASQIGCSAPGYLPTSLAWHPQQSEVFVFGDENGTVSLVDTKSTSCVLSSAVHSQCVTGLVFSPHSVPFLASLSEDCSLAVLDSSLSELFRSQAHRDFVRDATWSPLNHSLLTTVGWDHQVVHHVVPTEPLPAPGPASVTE

SMILES | IC50 [µM]
Cn1cnc2ccc(CN3CCN(CC(O)CN4CCc5ccccc5C4)C3=O)cc21 (single isomer, unassigned) [Example 1a, 1-(3-(3,4-Dihydroisoquinolin-2(1H)-yl)-2-hydroxypropyl)-3-((1-methyl-1H-benzo[d]imidazol-6-yl)methyl)imidazolidin-2-one] | 1.7
Cn1cnc2ccc(CN3CCN(CC(O)CN4CCc5ccccc5C4)C3=O)cc21 (single isomer, unassigned) [Example 1b, 1-(3-(3,4-Dihydroisoquinolin-2(1H)-yl)-2-hydroxypropyl)-3-((1-methyl-1H-benzo[d]imidazol-6-yl)methyl)imidazolidin-2-one] | 2.3
